Test results published in PubChem BioAssay AID651820 (National Center for Advancing Translational Sciences (NCATS), 2012).
Among all 340,000 compounds or so, about 12,000 (3.5%) were called active. The shares of active, inactive and inconclusive entries below differ from those in the screen. Calls follow the shape of the dose curve; as a rule, active = well fitted inhibition curve with a large enough effect; inconclusive = small, poorly fitted or top-dose-only effect, or another doubt; inactive = no such curve, though single readings can be large or run the other way. No potency is given beside an inconclusive call; the fits are too rough.

assay: qHTS Assay for Inhibitors of Hepatitis C Virus (HCV); settings: Huh7.5.1 HCVcc-Cre (HCVcc is cell-culture hepatitis C virus) infection, luciferase reporter, 44 h; activity change, negative = inhibition: at 41.8 µM (top of the series) unless noted
Outline: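 HCVcc-Cre virus at an moi near 0.5 was added right after compound to cells cultured 4 h from seeding (1,000 cells/well). Luciferase activity was determined 44 h later, 15 min after substrate addition at RT.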
% is scaled to controls: 0 for no effect and ±100 for the full control effect; potency is read from the fitted curve at half-maximal effect; tags tell the direction and shape of the fitted curve.

Row | SMILES | Potency | activity change, negative = inhibition
1 | Cc1cccn2c(=O)c(C=O)c(Cl)nc12 | inconclusive [inhibitor, single point] | 
2 | Cc1cc(N2CCOCC2)nc2ccccc12 | inconclusive [inhibitor, partial curve] | 
3 | COc1ccc(-c2cc(C(F)F)n3ncc(C(=O)N4CCN5CCCC5C4)c3n2)cc1 (stereo unspecified) | inconclusive [inhibitor, partial curve] | 
4 | COc1ccc(NC(=O)/C(C#N)=C\C=C\c2ccco2)cc1 | inconclusive [inhibitor, partial curve] | 
5 | CON1C(=O)C(=O)N(OC)C(C)(C)C1C (stereo unspecified) |  | inactive: 14.5%
6 | O=C1c2ccccc2C(=O)c2c1ccc1c(=O)n(C3CCCCC3)[nH]c21 | inconclusive [inhibitor, partial curve] | 
7 | O=C(CSc1ccccc1)N/N=C/c1ccccc1O | inconclusive [inhibitor, single point] | 
8 | CCCCC1CCC(C(=O)Nc2ccccc2N2CCOCC2)CC1 (stereo unspecified) | inconclusive [inhibitor, single point] | 
9 | CCC(C(=O)NC1CCCC1)N(C(=O)Cn1nnc(-c2ccc(OC)c(OC)c2)n1)c1cccc(O)c1 (stereo unspecified) | inconclusive [inhibitor, single point] | 
10 | Cc1cc(=O)[nH]c(SCC(=O)Nc2ccc(C)c(S(=O)(=O)N3CCCCC3)c2)n1 |  | inactive: 5.15%
11 | N#CCSc1nnc(COc2ccc3ccccc3c2)o1 |  | inactive: -6.81%
12 | Cc1c(N=Nc2c(-c3ccc([N+](=O)[O-])cc3)[nH]n(C(N)=S)c2=O)cccc1[N+](=O)[O-] | active: 8.91 µM | 
13 | COc1ccc(NC(=O)C(=O)NCCC2CCCCN2S(=O)(=O)c2ccccc2)cc1 (stereo unspecified) | inconclusive [inhibitor, full curve] | 
14 | CC(=O)Nc1csc2ccccc12 |  | inactive: 7.87%
15 | Cc1cc(Cl)ccc1OCCCC(=O)N/N=C/c1cccc([N+](=O)[O-])c1 | inconclusive [inhibitor, partial curve] | 
16 | COc1ccc(-c2c(-c3ccc(C#N)cc3)oc(=O)c3cc(OC)c(OC)cc23)cc1 | inconclusive [inhibitor, partial curve] | 
17 | CCN(Cc1nc2ccccc2c(=O)[nH]1)C(=O)COc1ccccc1Cc1ccccc1 | inconclusive [inhibitor, single point] | 
18 | COc1ccc(S(N)(=O)=O)cc1C(=O)OCC(=O)N1c2ccccc2NC(=O)C1(C)C |  | inactive: -4.29%
19 | CCn1ncc2c(OCc3ccc(C#N)cc3)cc(C)nc21 | inconclusive [inhibitor, single point] | 
20 | COc1ccc(C(CNC(=O)c2cccc(S(=O)(=O)N3CCCC3)c2)N2CCCC2)cc1 (stereo unspecified) | inconclusive [inhibitor, single point] | 
21 | CCc1ccc(NC(=O)C(=O)c2cn(CC(=O)N3CCCCC3)c3ccccc23)cc1 | inconclusive [inhibitor, full curve] | 
22 | Cc1ccc(CNC(=O)CCSCc2ccccc2F)cc1 |  | inactive: -3.35%
23 | CCC(C)/C(C)=N/NC(=O)c1ccc(CSc2nc3ccccc3s2)cc1 (stereo unspecified) | inconclusive [inhibitor, partial curve] | 
24 | CCCCN1C(=O)NC(c2ccc(OC)cc2)C(C(=O)OCc2ccccc2)=C1C (stereo unspecified) | inconclusive [inhibitor, full curve] | 

Row | SMILES | Potency | activity change, negative = inhibition
25 | Cc1nn(Cc2cccc(C(=O)NC3CCCCC3)c2)c(C)c1Cl | inconclusive [inhibitor, partial curve] | 
26 | COc1ccc(OC)c(CNn2c(-c3ccccc3F)nc3ccccc3c2=O)c1 |  | inactive: -16.8%
27 | O=C(c1ccc([N+](=O)[O-])cc1[N+](=O)[O-])N1CCc2ccccc21 | inconclusive [inhibitor, single point] | 
28 | CN(C)/C=C/C(=C\C(=O)C(F)(F)F)Nc1ccc(C(F)(F)F)cc1 | inconclusive [inhibitor, partial curve] | 
29 | COc1ccccc1/C=C/C(=O)OCC(=O)Nc1cc(C(F)(F)F)ccc1N1CCOCC1 | inconclusive [inhibitor, full curve] | 
30 | CN1CCc2ccccc2C1Cc1ccccc1NC(=O)c1sc2ccccc2c1Cl (stereo unspecified) | active: 14.1 µM | 
31 | C=CCn1c(SCC(=O)c2ccc(O)c(O)c2)nnc1-c1cccc(OC)c1 | inconclusive [inhibitor, single point] | 
32 | Cc1ccc(C)c(NC(=S)NNC(=S)Nc2ccc(C(C)C)cc2)c1 | active: 5.62 µM | 
33 | O=C(NCC1CCCO1)c1ccccc1NS(=O)(=O)c1ccc(Br)s1 (stereo unspecified) |  | inactive: 0.828%
34 | CCN(CC)C(=O)[C@H]1CC(CC(=O)NCCCN(C)C)C(=O)N2CCc3c([nH]c4ccc(OC)cc34)[C@]12C (stereo partly specified) |  | inactive: 31.9%
35 | O=C(CCn1c(=O)c2cccn2c2ccc(F)cc21)NCCc1ccccc1 | active: 10 µM | 
36 | Cc1ccc(S(=O)(=O)n2nc(-n3c(C)ccc3C)c3c(F)cccc32)c2ccccc12 |  | inactive: 8.35%
37 | Cc1ccc(C(=O)/C=C/c2ccc(Br)cc2)o1 | inconclusive [inhibitor, single point] | 
38 | Cc1nc(OCC(=O)c2ccc(Cl)cc2)c(C#N)c2c1COC(C)(C)C2 | inconclusive [inhibitor, single point] | 
39 | Cc1cc2c3c(c1)C(C)(c1ccccc1)CC(C)(C)N3C(=O)C21C(C#N)=C(N)OC2=C1C(=O)CC(C)(C)C2 (stereo unspecified) | inconclusive [inhibitor, single point] | 
40 | COc1cccc(C(=O)SC2=NCCS2)c1 | inconclusive [inhibitor, partial curve] | 
41 | CCC(C)(C)NC(=O)c1ccc(S(=O)(=O)N2CCCCCC2)cc1 |  | inactive: 0.747%
42 | Cc1ccc(C(=O)Nc2ccc(NC(=O)c3cccs3)cc2)c(C)c1 | inconclusive [inhibitor, partial curve] | 
43 | Cc1cc(NC(=O)c2c(F)cccc2Cl)n(-c2nc3ccccc3[nH]2)n1 | active: 14.1 µM | 
44 | CCOC(=O)C1=C(CNCc2ccc(C)cc2)NC(=O)NC1c1ccc(OC)cc1 (stereo unspecified) | inconclusive [inhibitor, partial curve] | 
45 | O=C(Nc1ccc(N2CCN(C(=O)c3ccco3)CC2)cc1)c1ccc(F)cc1 | inconclusive [inhibitor, partial curve] | 
46 | Cc1ccc(C(=O)NNC(=S)NC(=O)COc2ccccc2)cc1 | inconclusive [inhibitor, full curve, poor fit] | 
47 | CCN(c1ccccc1)S(=O)(=O)c1cccc(C(=O)OCC(=O)c2c(N)n(C)c(=O)n(C)c2=O)c1 | inconclusive [inhibitor, single point] | 
48 | O=C(Nc1ccc2c(c1)C(=O)NC2=O)c1cccc(Cl)c1 |  | inactive: 12.5%

Row | SMILES | Potency | activity change, negative = inhibition
49 | O=C(CSc1ncnc2sc3c(c12)CCCCC3)NCc1ccco1 | active: 11.2 µM | 
50 | COc1ccc(OC)c2sc(N(CCN(C)C)C(=O)/C=C/c3cccs3)nc12 | inconclusive [inhibitor, partial curve] | 
51 | Cc1ccc(S(=O)(=O)N(C)c2ccc(OCC(=O)NCC3(N(C)C)CCCCC3)cc2)cc1 | inconclusive [inhibitor, partial curve] | 
52 | C/C=C/C1=CC(=O)C[C@H](c2ccc(Cl)cc2)C1 |  | inactive: -1.57%
53 | CC(=O)Nc1cccc2c1C(=O)N(c1ccc(C)cc1)C2=O |  | inactive: 21.9%
54 | Cc1cc(C(=O)NNc2cc(Cl)ccc2Cl)no1 | inconclusive [inhibitor, single point] | 
55 | Cc1ccc(Cl)c2sc(NC(=O)C3=COCCO3)nc12 | inconclusive [inhibitor, partial curve] | 
56 | COc1ccc(C(=O)NNC(=O)c2cccs2)cc1S(=O)(=O)N1CCOCC1 |  | inactive: 4.28%
57 | O=C1c2ccccc2C(=O)C1c1ccc(O)cc1 | inconclusive [inhibitor, single point] | 
58 | Cc1ccc(NC(=O)C2CCN(S(=O)(=O)c3ccc4c(c3)OCCCO4)CC2)nc1 | inconclusive [inhibitor, single point] | 
59 | COc1ccc(S(=O)(=O)N2CCC(C(=O)NCC3CC3)CC2)cc1 |  | inactive: -10.4%
60 | O=C(c1ccccc1F)N1CCN(c2cccc(C(F)(F)F)c2)CC1 | inconclusive [inhibitor, single point] | 
61 | Cn1c(=O)c2c(nc(NCc3ccccc3)n2CCCc2ccccc2)n(C)c1=O | inconclusive [inhibitor, partial curve] | 
62 | Cc1ccc(S(=O)(=O)N(C)Cc2nc(-c3ccncc3)no2)cc1 | inconclusive [inhibitor, single point] | 
63 | CCOc1ccc(/C(C)=N/NC(=O)Cn2nc([N+](=O)[O-])cc2C)cc1 |  | inactive: -5.02%
64 | CN(C)c1ccc(C2Nc3cccc4cccc(c34)N2)cc1 |  | inactive: 18.1%
65 | O=C(CCn1ccc2cc(S(=O)(=O)N3CCCC3)ccc21)NCc1cccc(F)c1 | inconclusive [inhibitor, single point] | 
66 | O=C(C[n+]1cc(-c2ccccc2)n2c1CCCCC2)c1ccc(Cl)cc1 |  | inactive: -19.2%
67 | CC(=O)c1cccc(NC(=O)Nc2ccccc2)c1 |  | inactive: -9.94%
68 | O=C(Nc1ccccc1F)c1ccc(Br)o1 | inconclusive [inhibitor, full curve] | 
69 | CCCC(C)C1c2c(c(C)c(C)oc2=O)Oc2c(C)c(C)oc(=O)c21 (stereo unspecified) | inconclusive [inhibitor, single point] | 
70 | Cc1ccc(CNC(=O)Nc2ccc(OC(F)(F)F)cc2)n1C | inconclusive [inhibitor, full curve] | 
71 | O=C(NCCC1=CCCCC1)c1c(O)nc2ccccn2c1=O | inconclusive [inhibitor, single point] | 
